From PubChem BioAssay (Tox21)
This list was built around the results that the source calls inconclusive (neither active nor inactive); the mix of calls is not that of the screen. For some assays here: Potencies beside an inconclusive call are fits to weak or partial responses and may not hold up. Calls of active or inactive are those of the source. Unless noted, the call rests on the fitted dose curve; in most records, active means well fitted curve in the direction sought with a large enough effect in the repeat runs; inconclusive means weak or mixed curves; inactive means no such curve, though single readings can be large; an effect the other way counts as inactive or inconclusive.

Key:
[1] = target: Androgen receptor (Homo sapiens) (UniProt P10275); assay: qHTS assay to identify small molecule antagonists of the androgen receptor (AR) signaling pathway (AID 743035; active means well fitted inhibition curve with a large enough effect in the signal ratio in the repeat runs, not every such curve was filed as active; inconclusive means weak or mixed curves, or effect the other way; inactive means no such curve, though single readings can be large or run the other way; the % refers to the signal ratio; further: potency means the concentration at half of the fitted maximal effect; on activity change, negative = inhibition: on the % scale 0 is the no-effect control and ±100 the full control effect); details: HEK293 AR-UAS-bla, R1881-stimulated, beta-lactamase FRET, 16 h; activity change, negative = inhibition: at 58.5 µM (top of the series) unless noted
Chain of UniProt P10275 (P10275 whole entry, looked up): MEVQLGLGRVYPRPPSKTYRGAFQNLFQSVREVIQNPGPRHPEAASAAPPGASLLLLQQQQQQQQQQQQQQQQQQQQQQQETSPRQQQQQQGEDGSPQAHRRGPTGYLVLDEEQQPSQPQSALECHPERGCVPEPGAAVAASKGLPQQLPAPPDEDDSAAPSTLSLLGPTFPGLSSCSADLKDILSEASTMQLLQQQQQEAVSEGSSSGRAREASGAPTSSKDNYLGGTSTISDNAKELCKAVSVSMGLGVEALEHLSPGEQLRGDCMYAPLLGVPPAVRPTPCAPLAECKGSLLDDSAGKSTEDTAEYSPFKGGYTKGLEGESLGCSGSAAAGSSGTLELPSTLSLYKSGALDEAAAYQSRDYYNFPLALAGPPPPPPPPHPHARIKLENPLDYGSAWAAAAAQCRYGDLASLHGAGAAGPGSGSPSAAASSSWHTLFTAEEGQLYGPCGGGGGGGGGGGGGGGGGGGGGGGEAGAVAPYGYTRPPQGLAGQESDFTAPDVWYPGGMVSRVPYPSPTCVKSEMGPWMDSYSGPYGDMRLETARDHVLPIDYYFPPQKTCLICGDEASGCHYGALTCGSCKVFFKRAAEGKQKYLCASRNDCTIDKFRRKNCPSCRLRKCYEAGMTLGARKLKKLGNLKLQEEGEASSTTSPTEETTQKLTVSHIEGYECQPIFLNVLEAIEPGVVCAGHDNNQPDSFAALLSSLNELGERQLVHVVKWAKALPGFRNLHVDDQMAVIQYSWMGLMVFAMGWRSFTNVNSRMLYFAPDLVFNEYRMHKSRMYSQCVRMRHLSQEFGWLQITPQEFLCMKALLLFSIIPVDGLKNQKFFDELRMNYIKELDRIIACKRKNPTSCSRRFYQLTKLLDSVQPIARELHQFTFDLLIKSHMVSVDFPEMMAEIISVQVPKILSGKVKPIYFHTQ
Outline: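 Cell line: GeneBLAzer AR-UAS-bla GripTite (HEK293). Stimulus: R1881 added after compound. Exposure: 16 h, 37C, 5% CO2. Readout: LiveBLAzer B/G FRET fluorescence after 2 h at room temperature.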

[2] = target: Androgen receptor (Homo sapiens) (UniProt P10275); assay: qHTS assay to identify small molecule agonists of the androgen receptor (AR) signaling pathway (AID 743036; active means well fitted activation curve with a large enough effect in the signal ratio in the repeat runs, with a control signal flat, not every such curve was filed as active; inconclusive means weak or mixed curves, or effect the other way; inactive means no such curve, though single readings can be large or run the other way; the % refers to the signal ratio; further: potency means the concentration at half of the fitted maximal effect; on activation: on the % scale 0 is the no-effect control and ±100 the full control effect); details: HEK293 AR-UAS-bla GripTite, beta-lactamase FRET ratio, 16 h; activation: at 62.4 µM (top of the series) unless noted
Outline: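 AR-UAS-bla HEK293 cells, plated 4 h before dosing, were treated with compound for 16 h at 37C. beta-Lactamase reporter read after 2 h with LiveBLAzer B/G FRET substrate at room temperature.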

[3] = qHTS assay to identify small molecule antagonists of the thyroid receptor (TR) signaling pathway - cell viability counter screen (AID 743064); details: GH3.TRE-Luc viability, CellTiter-Fluor, 24 h; activity change, negative = cytotoxic: at 70.3 µM (top of the series) unless noted; further: nearly all actives have a fitted effect of over 50% in size; further: potency means the concentration at half of the fitted maximal effect; on activity change, negative = cytotoxic: on the % scale 0 is the no-effect control and ±100 the full control effect
Outline: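 GH3.TRE-Luc rat pituitary cells dosed after 4 hr plating, co-stimulated with T3 at 1 nM final, incubated 23.5 h at 37 C. Viability measured in the same wells by CellTiter-Fluor fluorescence after 30 min further at 37 C.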

[4] = qHTS assay to identify small molecule antagonists of the androgen receptor (AR) signaling pathway - cell viability counter screen (AID 743033; further: potency means the concentration at half of the fitted maximal effect; nearly all actives have a fitted effect of over 45% in size); details: AR-bla HEK293 viability, CellTiter-Glo luminescence, 16 h; activity change, negative = cytotoxicity: at 58.5 µM (top of the series) unless noted
[5] = qHTS assay to identify small molecule antagonists of the estrogen receptor alpha (ER-alpha) signaling pathway using the BG1 cell line (AID 743080; calls by dose curve;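 further: BG1 cells stimulated with 17beta-estradiol alongside compound; nearly all actives have a fitted effect of over 25% in size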; further: potency means the concentration at half of the fitted maximal effect); details: BG1Luc4E2 ERE-luciferase antagonist mode, luminescence; activity change, negative = inhibition: at 70.3 µM (top of the series) unless noted
Outline: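 Luminescence from a 4×ERE-luciferase reporter in BG1-Luc-4E2 cells served as read-out. Cells, pre-cultured 5 days in stripped-serum phenol-red-free medium, were exposed to compound with 17beta-estradiol co-stimulation for 21.5 h at 37 C.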

[6] = qHTS assay to identify small molecule that activate the aryl hydrocarbon receptor (AhR) signaling pathway - cell viability counter screen (AID 743086); further: nearly all actives have a fitted effect of over 45% in size; further: potency means the concentration at half of the fitted maximal effect
Outline: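 HepG2-AhR-luc (HG2L7.5c1) cells, 4000/well, were preincubated 5 h at 37C, exposed to compound in qHTS format for 24 hr at 37C, then given CellTiter-Fluor for 30 min; viability was read as fluorescence in the reporter wells.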

[7] = qHTS assay to identify small molecule antagonists of the estrogen receptor alpha (ER-alpha) signaling pathway using the BG1 cell line - cell viability counter screen (AID 743081); details: BG1Luc4E2 viability, CellTiter-Fluor, 22 h; activity change, negative = cytotoxicity: at 70.3 µM (top of the series);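 further: compound given together with 17beta-estradiol as the ER stimulus; nearly all actives have a fitted effect of over 45% in size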; further: potency means the concentration at half of the fitted maximal effect
[8] = target: Peroxisome proliferator-activated receptor gamma (Homo sapiens) (UniProt P37231); assay: qHTS assay to identify small molecule agonists of the peroxisome proliferator-activated receptor gamma (PPARg) signaling pathway (AID 743094; active means well fitted activation curve with a large enough effect in the signal ratio in the repeat runs, not every such curve was filed as active; inconclusive means weak or mixed curves, or effect the other way; inactive means no such curve, though single readings can be large or run the other way; the % refers to the signal ratio; further: potency means the concentration at half of the fitted maximal effect); details: HEK293H PPARg-UAS-bla, beta-lactamase FRET ratio, 17 h; activation: at 57 µM (top of the series) unless noted
Chain of UniProt P37231 (P37231 whole entry, looked up): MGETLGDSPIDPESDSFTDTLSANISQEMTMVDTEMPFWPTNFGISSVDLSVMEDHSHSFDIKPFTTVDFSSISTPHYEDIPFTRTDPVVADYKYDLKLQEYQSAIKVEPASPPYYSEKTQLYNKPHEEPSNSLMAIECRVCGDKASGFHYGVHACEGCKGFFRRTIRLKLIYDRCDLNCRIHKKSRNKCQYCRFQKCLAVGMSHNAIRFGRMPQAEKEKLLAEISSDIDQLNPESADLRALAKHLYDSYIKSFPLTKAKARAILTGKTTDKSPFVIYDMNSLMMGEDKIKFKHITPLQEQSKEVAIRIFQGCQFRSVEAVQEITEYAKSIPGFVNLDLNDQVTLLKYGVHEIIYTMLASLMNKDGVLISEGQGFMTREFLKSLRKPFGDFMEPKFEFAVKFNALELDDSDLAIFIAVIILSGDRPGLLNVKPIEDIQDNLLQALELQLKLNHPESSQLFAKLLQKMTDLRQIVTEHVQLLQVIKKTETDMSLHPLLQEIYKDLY
Outline: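 Stably transfected HEK293H cells (GeneBLAzer PPARg UAS-bla) were incubated with test substances for 17 h at 37C after a 5 h pre-incubation; beta-lactamase activity was then detected by FRET substrate fluorescence.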

[9] = qHTS assay to identify small molecule antagonists of the estrogen receptor alpha (ER-alpha) signaling pathway - cell viability counter screen (AID 743074; calls by dose curve; further: potency means the concentration at half of the fitted maximal effect; nearly all actives have a fitted effect of over 45% in size)
[10] = target: Androgen receptor (Homo sapiens) (UniProt P10275); assay: qHTS assay to identify small molecule antagonists of the androgen receptor (AR) signaling pathway using the MDA cell line (AID 743042; further: potency means the concentration at half of the fitted maximal effect; nearly all actives have a fitted effect of over 55% in size)
Outline: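 MDA-kb2 cells (human breast carcinoma, stably carrying an MMTV-luciferase reporter responsive to AR and GR) were plated at 3,000 cells/well and preincubated 5 hr at 37C, then given compound plus R1881 agonist for 16 h. ONE-Glo luminescence was read.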

Aromatase (Homo sapiens) = Aromatase (Homo sapiens) (UniProt P11511); assay: qHTS assay to identify aromatase inhibitors (AID 743083); details: MCF-7 aro ERE, testosterone-driven ERE luciferase, 24 h; activity, negative = inhibition: at 70.3 µM (top of the series); further: potency means the concentration at half of the fitted maximal effect; nearly all actives have a fitted effect of over 55% in size
Chain of UniProt P11511 (P11511 whole entry, looked up): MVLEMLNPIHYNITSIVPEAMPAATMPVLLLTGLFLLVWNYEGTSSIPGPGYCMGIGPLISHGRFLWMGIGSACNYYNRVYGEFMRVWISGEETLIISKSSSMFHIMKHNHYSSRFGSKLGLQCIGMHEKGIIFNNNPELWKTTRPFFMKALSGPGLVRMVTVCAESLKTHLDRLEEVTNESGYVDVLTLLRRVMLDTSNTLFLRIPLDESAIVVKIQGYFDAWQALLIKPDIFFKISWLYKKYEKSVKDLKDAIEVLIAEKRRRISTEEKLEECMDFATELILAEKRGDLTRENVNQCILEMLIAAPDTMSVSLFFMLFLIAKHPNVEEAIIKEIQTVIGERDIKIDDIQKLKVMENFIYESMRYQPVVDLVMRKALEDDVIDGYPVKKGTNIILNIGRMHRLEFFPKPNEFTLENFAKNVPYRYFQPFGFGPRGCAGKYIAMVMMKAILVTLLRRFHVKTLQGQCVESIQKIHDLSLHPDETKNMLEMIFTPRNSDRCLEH

[11] = qHTS assay to identify small molecule antagonists of the androgen receptor (AR) signaling pathway using the MDA cell line - cell viability counter screen (AID 743041); details: MDA-kb2 viability, CellTiter-Fluor, 16 h, cells co-treated with R1881 androgen agonist; viability change, negative = cytotoxic: at 70.3 µM (top of the series) unless noted
Outline: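 MDA-kb2 AR-luc human breast carcinoma cells (MMTV-luciferase, AR/GR responsive) were treated with compounds plus R1881 agonist for 16 h at 37 °C. Viability was read as CellTiter-Fluor fluorescence in the same wells as the reporter assay.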

[12] = tested on: thyroid hormone receptor (rat, GH3 cells); assay: qHTS assay to identify small molecule agonists of the thyroid receptor (TR) signaling pathway (AID 743066; calls by dose curve; further: on the % scale 0 is the no-effect control and ±100 the full control effect); details: GH3.TRE-Luc cells, TR agonist luciferase, 24 h; activation: at 83.9 µM (top of the series) unless noted
[13] = target: Estrogen receptor (Homo sapiens) (UniProt P03372); assay: qHTS assay to identify small molecule antagonists of the estrogen receptor alpha (ER-alpha) signaling pathway (AID 743069; active means well fitted curve in the direction sought with a large enough effect in the signal ratio in the repeat runs, not every such curve was filed as active; inconclusive means weak or mixed curves, or effect the other way; inactive means no such curve, though single readings can be large or run the other way; the % refers to the signal ratio; further: potency means the concentration at half of the fitted maximal effect); details: HEK293 ER-alpha-UAS-bla, beta-lactamase ratio, antagonist mode; activity, negative = inhibition: at 69.4 µM (top of the series) unless noted
Chain of UniProt P03372 (P03372 whole entry, looked up): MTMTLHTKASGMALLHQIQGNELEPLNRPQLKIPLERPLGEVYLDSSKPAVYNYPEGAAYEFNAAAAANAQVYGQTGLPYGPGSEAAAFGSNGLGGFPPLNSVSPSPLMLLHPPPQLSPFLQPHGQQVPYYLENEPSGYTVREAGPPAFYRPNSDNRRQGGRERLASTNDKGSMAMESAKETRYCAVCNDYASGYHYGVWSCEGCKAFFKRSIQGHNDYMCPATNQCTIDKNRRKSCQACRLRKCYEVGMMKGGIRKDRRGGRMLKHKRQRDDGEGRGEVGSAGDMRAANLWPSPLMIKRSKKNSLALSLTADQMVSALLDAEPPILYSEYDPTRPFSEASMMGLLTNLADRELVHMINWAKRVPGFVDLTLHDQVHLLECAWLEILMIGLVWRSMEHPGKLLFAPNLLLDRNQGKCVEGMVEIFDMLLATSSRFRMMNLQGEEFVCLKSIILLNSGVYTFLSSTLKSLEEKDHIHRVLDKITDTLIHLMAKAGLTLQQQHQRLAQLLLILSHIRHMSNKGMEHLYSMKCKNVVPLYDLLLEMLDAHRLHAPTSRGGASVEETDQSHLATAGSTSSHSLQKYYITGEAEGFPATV
Outline: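 HEK293 cells stably carrying an ER-alpha-UAS-bla beta-lactamase reporter were pre-cultured overnight in 2% charcoal-stripped FBS medium. Test compounds in DMSO were added together with 17beta-estradiol for 18 hr at 37C. Read-out was fluorescence after 2 hr with LiveBLAzer B/G FRET substrate at room temperature.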

[14] = target: Estrogen receptor (Homo sapiens) (UniProt P03372); assay: qHTS assay to identify small molecule agonists of the estrogen receptor alpha (ER-alpha) signaling pathway (AID 743075; calls by dose curve; further: potency means the concentration at half of the fitted maximal effect)
[15] = target: Estrogen receptor (Homo sapiens) (UniProt P03372); assay: qHTS assay to identify small molecule agonists of the estrogen receptor alpha (ER-alpha) signaling pathway using the BG1 cell line (AID 743079); details: BG1Luc4E2 cells, ERE-luciferase agonist, 22 h; activation: at 70.3 µM (top of the series) unless noted; further: potency means the concentration at half of the fitted maximal effect; nearly all actives have a fitted effect of over 20% in size
[16] = qHTS assay to identify aromatase inhibitors - cell viability counter screen (AID 743084); details: MCF-7 aro ERE viability, CellTiter-Fluor, 24 h; activity change, negative = cytotoxicity: at 70.3 µM (top of the series) unless noted;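 further: cells stimulated with testosterone during compound exposure; potency means the concentration at half of the fitted maximal effect; nearly all actives have a fitted effect of over 55% in size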
[17] = qHTS assay to identify small molecule antagonists of the thyroid receptor (TR) signaling pathway (AID 743065); further: nearly all actives have a fitted effect of over 55% in size; further: potency means the concentration at half of the fitted maximal effect
Outline: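 GH3.TRE-Luc rat pituitary cells carrying two TR response elements driving luciferase were plated for 4 h, given compound plus 1 nM T3 (final), and incubated 23.5 h at 37 C. ONE-Glo luminescence measured reporter inhibition; CellTiter-Fluor fluorescence tracked cytotoxicity.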

[18] = target: Aryl hydrocarbon receptor (Homo sapiens) (UniProt P35869); assay: qHTS assay to identify small molecule that activate the aryl hydrocarbon receptor (AhR) signaling pathway (AID 743085); further: potency means the concentration at half of the fitted maximal effect; nearly all actives have a fitted effect of over 15% in size
Chain of UniProt P35869 (P35869 whole entry, looked up): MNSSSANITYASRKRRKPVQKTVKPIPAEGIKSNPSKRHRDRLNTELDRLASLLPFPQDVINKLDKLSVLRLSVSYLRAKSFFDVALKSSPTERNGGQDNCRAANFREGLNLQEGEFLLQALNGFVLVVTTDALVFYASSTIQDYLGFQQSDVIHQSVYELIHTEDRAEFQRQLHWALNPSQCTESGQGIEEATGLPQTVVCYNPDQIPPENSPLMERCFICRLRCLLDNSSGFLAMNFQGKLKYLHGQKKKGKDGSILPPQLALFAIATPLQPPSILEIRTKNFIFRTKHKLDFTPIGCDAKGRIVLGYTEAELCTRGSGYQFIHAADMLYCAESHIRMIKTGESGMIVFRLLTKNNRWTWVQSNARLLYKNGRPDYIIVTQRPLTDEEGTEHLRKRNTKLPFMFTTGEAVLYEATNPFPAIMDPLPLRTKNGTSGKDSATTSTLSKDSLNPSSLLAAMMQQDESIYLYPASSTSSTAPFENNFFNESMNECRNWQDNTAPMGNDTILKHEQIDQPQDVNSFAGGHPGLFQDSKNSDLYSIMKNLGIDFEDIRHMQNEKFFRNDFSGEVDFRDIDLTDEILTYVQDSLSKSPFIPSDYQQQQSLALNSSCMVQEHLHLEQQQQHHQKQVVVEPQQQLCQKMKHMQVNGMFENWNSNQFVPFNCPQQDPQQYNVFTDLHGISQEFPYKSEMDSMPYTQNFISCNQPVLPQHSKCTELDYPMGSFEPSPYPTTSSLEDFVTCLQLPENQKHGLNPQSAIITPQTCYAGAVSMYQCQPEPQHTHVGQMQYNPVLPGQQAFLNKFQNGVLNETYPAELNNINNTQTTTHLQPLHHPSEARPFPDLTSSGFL
Outline: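 HepG2 cells stably carrying a 20-DRE firefly luciferase reporter (HG2L7.5c1) treated with compound for 24 hr at 37C. Luciferase read by ONE-Glo luminescence, with CellTiter-Fluor viability read first.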
Tags describe the fitted curve by direction and shape or compound fluorescence and quenching.

Cc1cc(=O)[nH]o1
inconclusive: activity change, negative = inhibition [1] 4.94% [at 78.9 µM]
inactive: Potency [2] | Potency [3]

CCCn1cc[n+](C)c1
inactive: Potency [5] | Potency [6]
inconclusive: Potency [4] 54.7 µM [cytotoxic, single point]

CC1OC(C)OC(C)O1 (centres undefined)
inactive: Potency [7]
inconclusive: Potency [4] 0.0379 µM [rising, full curve] | activation [8] 6.23%

CC(=O)Nc1cc([As](=O)(O)O)ccc1O
inconclusive: Potency [4] 0.535 µM [rising, full curve, poor fit] | Potency [9] 23.9 µM [rising, single point] | activity change, negative = inhibition [5] -0.629%

OC[P+](CO)(CO)CO
inconclusive: Potency [4] 55.6 µM [cytotoxic, single point]
inactive: Potency [5]

CCCCN(N=O)C(=N)N[N+](=O)[O-]
inconclusive: Potency [10] 49.6 µM [inhibitor, partial curve, poor fit] | Potency (Aromatase (Homo sapiens)) 62.4 µM [inhibitor, single point]
inactive: Potency [1] | Potency [2] | Potency [7]

Cc1ccc(-c2c(Cl)nc(C#N)n2S(=O)(=O)N(C)C)cc1
inconclusive: Potency [1] 1.95 µM [rising, full curve] | Potency [2] 4.89 µM [rising, full curve] | Potency [11] 68.5 µM [cytotoxic, single point] | activation [12] -8.1% [phenotype inactive] | Potency [13] 13.8 µM [fluorescent, full curve] | Potency [9] 1.95 µM [cytotoxic, partial curve] | Potency [14] 3.46 µM [falling, full curve, poor fit] | Potency [15] 24.3 µM [inhibitor, partial curve] | Potency (Aromatase (Homo sapiens)) 68.5 µM [inhibitor, single point] | Potency [16] 68.5 µM [cytotoxic, single point]
active: Potency [10] 54.4 µM | Potency [3] 54.4 µM | Potency [5] 54.4 µM

C[C@H]1[C@H](c2ccc(Cl)cc2)SC(=O)N1C(=O)NC1CCCCC1
inactive: Potency [2] | Potency [7] | Potency [8]
inconclusive: activity change, negative = inhibition [1] 0.818% | Potency [10] 17.2 µM [inhibitor, partial curve, poor fit] | Potency [3] 68.6 µM [cytotoxic, single point] | activation [12] -7.72% [phenotype inactive] | Potency [13] 49 µM [inhibitor] | Potency [15] 68.6 µM [inhibitor] | Potency (Aromatase (Homo sapiens)) 68.6 µM [inhibitor, single point]
active: Potency [5] 61.1 µM

CN(C1CCCCC1)C1CCCCC1
inactive: Potency [1] | Potency [2] | Potency [17]

Nc1c(Cl)c(Cl)c(Cl)c(Cl)c1Cl
inconclusive: Potency [1] 54.9 µM [rising, single point] | Potency [2] 54.9 µM [rising, partial curve, poor fit] | Potency [11] 8.63 µM [rising, partial curve, poor fit] | Potency [3] 15.4 µM [rising, single point] | Potency [16] 68.6 µM [rising, partial curve, poor fit] | Potency [8] 61.7 µM [rising, partial curve, poor fit]
inactive: Potency [7]
active: Potency [18] 50.5 µM

CCC(OC(C)=O)C(CC(C)NC)(c1ccccc1)c1ccccc1 (centres undefined)
active: Potency [1] 49.4 µM | Potency [11] 27.5 µM
inconclusive: Potency [2] 9.85 µM [fluorescent, full curve, poor fit] | activation [12] -9.93% [phenotype inactive] [at 95.2 µM] | Potency [13] 44 µM [inhibitor, partial curve] | Potency [9] 55.4 µM [cytotoxic, single point] | Potency [15] 77.6 µM [inhibitor] | activity change, negative = inhibition [5] -25% [at 95 µM] | Potency [7] 77.6 µM [cytotoxic, single point] | Potency (Aromatase (Homo sapiens)) 77.6 µM [inhibitor] | Potency [16] 69.2 µM [cytotoxic, single point] | activation [8] -23% [at 78.9 µM]

COP(=S)(OC)Oc1cc(Cl)c(I)cc1Cl
inconclusive: Potency [1] 61.6 µM | Potency [2] 17.4 µM [rising, partial curve, poor fit] | Potency [17] 68.6 µM [inhibitor, single point] | activation [8] -15.4%

CC(=O)[O-].CC(=O)[O-].O.O.[Cd+2]
active: Potency [4] 24.2 µM | Potency [9] 43 µM | Potency [16] 42.7 µM | Potency [6] 2.69 µM
